Reference: PubChem BioAssay AID360 (National Center for Advancing Translational Sciences (NCATS), 2006)
Hit rate of the full screen: of about 48,000 compounds, about 550 (1.1%) were called active. Not shown: some 4% with an inconclusive outcome. No stated cut-off is given here; in the data, active means potency below about 15 µM; inconclusive means mostly about 16 µM to 33 µM; inactive means weaker than that. Some of the results follow.

target: Lysosomal acid glucosylceramidase (Homo sapiens) (UniProt P04062); assay: Glucocerebrosidase; settings: purified enzyme, resorufin glucoside fluorescence (screen aimed at inhibitors), 20 min; series mostly up to 77 µM;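 further: the screen sought inhibitors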
Procedure, shortened: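 Compounds titrated against 0.2 nM normal enzyme, 30 uM resorufin beta-D-glucopyranoside substrate, citrate/phosphate buffer with taurocholate and tween-20, pH 5.9. Reaction ran 20 min at room temperature; fluorescence (Ex 548/Em 600) gave AC50.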
Potency means the concentration at half of the fitted maximal effect.

UniProt P04062, sequence (P04062 whole entry, looked up): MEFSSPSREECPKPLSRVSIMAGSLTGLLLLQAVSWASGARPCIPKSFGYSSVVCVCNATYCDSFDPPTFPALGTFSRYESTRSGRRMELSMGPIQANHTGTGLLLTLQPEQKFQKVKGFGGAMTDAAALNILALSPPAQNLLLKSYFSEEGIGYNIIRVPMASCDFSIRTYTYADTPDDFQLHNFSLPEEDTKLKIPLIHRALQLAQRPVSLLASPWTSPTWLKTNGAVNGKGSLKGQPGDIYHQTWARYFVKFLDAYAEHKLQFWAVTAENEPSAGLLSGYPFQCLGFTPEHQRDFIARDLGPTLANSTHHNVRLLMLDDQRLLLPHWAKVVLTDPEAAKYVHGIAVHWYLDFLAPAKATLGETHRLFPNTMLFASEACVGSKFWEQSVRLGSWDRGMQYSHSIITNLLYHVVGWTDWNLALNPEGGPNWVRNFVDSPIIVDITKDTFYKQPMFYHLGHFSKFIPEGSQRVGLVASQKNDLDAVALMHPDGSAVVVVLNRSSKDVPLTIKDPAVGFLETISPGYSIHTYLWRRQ

Potency, inactive:
Cn1nnnc1SCC(=O)Nc1ccc(N2CCOCC2)cc1 > 76.9 µM
O=C(CCN1C(=O)c2ccccc2S1(=O)=O)N1CCN(c2ccccc2)CC1 > 76.9 µM
Cc1nc(-n2nnc3ccccc32)c2c3c(sc2n1)CCCC3 > 76.9 µM
O=C(c1ccco1)N1CCN(C(=O)c2cccc3c2C(=O)N(C2CCCCC2)C3)CC1 > 76.9 µM
CC1CCCCC1NC(=O)CCn1c(=O)oc2ccccc21 (stereo not given) > 76.9 µM
CCn1c(SCC(=O)C(C)(C)C)nnc1-c1cccnc1 > 76.9 µM
CCc1cc2c(N[C@@H](C)C(=O)O)ncnc2s1 > 76.9 µM
c1ccc2c(c1)nc1sccn12 > 76.9 µM
CC(C)CNC(=O)CSc1nnc(-c2ccccn2)n1Cc1ccccc1 > 76.9 µM
CCOc1ccccc1C(=O)NC(C)c1ccc2c(c1)OCO2 (stereo not given) > 76.9 µM
CCCOc1ccc(C2C(C(=O)c3ccco3)=C(O)C(=O)N2CCN2CCOCC2)cc1OC (stereo not given) > 76.9 µM
COc1ccc(NC(=O)CCC2CCCC2)cc1OC > 76.9 µM
COC(=O)C1=C(C)N(c2cccc3ccccc23)C(=O)C1 > 76.9 µM
COc1ccc(CCN2C(=O)CC(N3CCOCC3)C2=O)cc1 (stereo not given) > 76.9 µM
O=C(O)c1ccc(CSCc2c(F)cccc2Cl)o1 > 76.9 µM
CN(C)/C=N/c1c(C#N)cnn1-c1ncnc2sc(-c3ccccc3)cc12 > 76.9 µM
O=C(O)c1cccc(S(=O)(=O)N2CCOCC2)c1 > 76.9 µM
O=S(=O)(c1ccc2nc(COc3ccccc3)[nH]c2c1)N1CCOCC1 > 76.9 µM
C=CCn1c(NCCc2ccccc2)nc2c1c(=O)n(C)c(=O)n2C > 76.9 µM
CN(Cc1c(F)cccc1Cl)c1nnnn1-c1ccccc1 > 76.9 µM
Cc1ccc2nc3c(c(N)c2c1)CCN3c1ccccc1
COc1cc2c(cc1NC(=O)CN1CCN(S(=O)(=O)c3ccc(F)cc3)CC1)oc1ccccc12 > 76.9 µM
Cc1cccc(NC(=O)c2cc3ccccc3c(=O)o2)n1 > 76.9 µM
CC(C)Cn1c(-c2ccccc2F)n[nH]c1=S > 76.9 µM
O=C(C1CCN(S(=O)(=O)c2cnc[nH]2)CC1)N1CCN(Cc2ccc3c(c2)OCO3)CC1 > 76.9 µM
CCCC1=C(C(=O)OCC)C(c2ccc(O)cc2)n2ncnc2N1 (stereo not given) > 76.9 µM
CC(C)OCCCNC(=O)c1sc(=S)n(C)c1N > 76.9 µM
O=C(c1cc2c(s1)CCCC2)N1CCN(Cc2ccc3c(c2)OCO3)CC1 > 76.9 µM
O=C(CC1CCCC1)Nc1nc2ccccc2[nH]1 > 76.9 µM
CCn1c(=O)cc(OCC(=O)N(C)C2CCCCC2)c2ccccc21 > 76.9 µM
COc1cccc(NC(=O)CSc2nnc(-c3cccc(OC(C)C)c3)n2N)c1 > 76.9 µM
COc1ccc(C(=O)CSc2nnc(CNc3nc(-c4ccccc4)cs3)n2C)cc1
COC(=O)c1cc(NC(=O)c2ccoc2C)cc(C(=O)OC)c1 > 76.9 µM
COc1cc(S(=O)(=O)N(Cc2ccc(C)cc2)C2CCCCC2)ccc1-n1cnnn1 > 76.9 µM
COc1cccc2cc(-c3csc(CCn4nc(C)cc4C)n3)c(=O)oc12 > 76.9 µM
CC1CCN(C(=O)CSc2nnc(-c3ccc(S(=O)(=O)N4CCOCC4)cc3)n2C)CC1 > 76.9 µM
COC(=O)C1=[N+]([O-])OC(C(=O)OC)C1c1c[nH]c2ccccc12 (stereo not given) > 76.9 µM
CC(C)(C)c1[nH]nc2c1C(c1ccncc1)C(C#N)=C(N)O2 (stereo not given) > 76.9 µM
CNC(=O)c1cc2cc(Cl)cc(OC)c2oc1=O > 76.9 µM
c1ccc2nc3c(nc2c1)sc1nc2ccccc2n13 > 76.9 µM
COc1ccc(-c2noc(C3CCCN(S(=O)(=O)c4cccc(Cl)c4)C3)n2)cc1OC (stereo not given) > 76.9 µM
O=C(Oc1cccc2c(OC(=O)N3CCOCC3)cccc12)N1CCOCC1 > 76.9 µM
COC(=O)CSc1nnc(CNC(=O)Cc2ccccc2)n1C > 76.9 µM
Cc1c(C(=O)OC2CCCCC2)[nH]c2c1C(=O)CC(C)(C)C2 > 76.9 µM
CC1(C)CC(CCNC(=O)c2ccco2)CC(C)(C)N1 > 76.9 µM
Cc1cc(C(=O)NC2=NCCS2)cs1 > 76.9 µM
COc1ccc(N2C(=O)c3ccc(NC(C)=O)cc3C2=O)cc1 > 76.9 µM
O=C(NCc1cccs1)c1noc2c1CCCC2 > 76.9 µM
CCC(=O)Nc1c2c(nn1-c1ccccc1C)CSC2 > 76.9 µM
CCCCOc1ccc(NC(=O)CSc2nnnn2C)cc1 > 76.9 µM
CCc1nnc(-n2nc(C)cc2-c2ccccc2)n1N > 76.9 µM
CCOC(=O)N1CCC(N2CCN(S(=O)(=O)c3ccc(NC(C)=O)cc3)CC2)CC1 > 76.9 µM
C=CS(=O)(=O)c1ccc(Oc2ccc(S(=O)(=O)C=C)cc2)cc1 > 76.9 µM
COc1ccc2nc(SCC(=O)NC(C)C)[nH]c2c1 > 76.9 µM
CCC1CCCCN1C(=O)CSc1nnc(-c2cccs2)o1 (stereo not given) > 76.9 µM
Cc1n[nH]c(C)c1C(=O)CC1(O)C(=O)N(CCc2ccccc2)c2ccc(Cl)cc21 (stereo not given) > 76.9 µM
CCOC(=O)CSc1nc(C2CC2)nc2ccccc12 > 76.9 µM
Cc1nonc1NC(=O)N1CCCC1 > 76.9 µM
CCOC(=O)N1CCN(C(=O)c2nc3ccccc3s2)CC1 > 76.9 µM
O=C(NCc1ccc(Cl)cc1)c1ccc(COCC(F)(F)F)o1 > 76.9 µM
